# Assay results: ChEMBL document CHEMBL1156829
# Over roughly 5,400 compounds, “IFI” has its median near 2; the highest 2% begin near 22. The list shows a part of the results.
# Assay: NOVARTIS: Inhibition Frequency Index (IFI) - the number of HTS assays where a compound showed > 50% inhibition/induction, expressed as a percentage of the number of assays in which the compound was tested.
# Type: functional
row,Compound,IFI [%]
1,c1ccc(Oc2ccc(Nc3nc4nonc4nc3Nc3ccc(Oc4ccccc4)cc3)cc2)cc1,0
2,COc1cccc(C(=O)NCc2nnc(S)n2-c2ccc(Cl)c(Cl)c2)c1,0
3,CCCOc1ccc(C(=O)C2=C(O)C(=O)N(CCN3CCOCC3)C2c2ccc(F)cc2)c(C)c1 (centres undefined),0
4,NNc1ncnc2[nH]cnc12,0
5,CCCCCc1c(C)c(C#N)c2nc3ccccc3n2c1NCCN(CC)CC,2.38
6,N#Cc1c(NC(=O)CCl)c(C(=O)c2ccccc2)n2c1CCC2,0
7,O=c1c([N+](=O)[O-])cccn1Cc1ccc(F)cc1Cl,0
8,CCCNCC(O)COc1ccccc1C(=O)CCc1ccccc1 (centres undefined),0.549
9,COc1ccc(C2CC(=O)C3=C(C2)NC(C)=C(C(=O)OC2CCCCC2)C3c2ccc([N+](=O)[O-])cc2)cc1OC (centres undefined),4.82
10,COC(=O)C1=C(C)NC2=C(C(=O)CC(c3ccc(OC)c(OC)c3)C2)C1c1cccc(Cl)c1Cl (centres undefined),4.82
11,O=C(Nc1ccc(Nc2cc([N+](=O)[O-])ccc2O)c2c1C(=O)c1ccccc1C2=O)c1ccccc1,7.69
12,CCOC(=O)c1sc(NC(=O)CSc2nnc(CNC(=O)COc3ccccc3)n2C)c(C(=O)OCC)c1C,1.19
13,CC1CCN(S(=O)(=O)c2ccc(C(=O)NCc3ccco3)cc2)CC1,0
14,Cc1ccccc1Nc1sc(C(=O)c2ccc([N+](=O)[O-])cc2)c(N)c1C(=O)Nc1ccccc1,0
15,CCCC(c1nnnn1C1CCCCC1)N1CCN(C(=O)c2ccco2)CC1 (centres undefined),0
16,CCCCCCCCC(=O)N1CCN(C(CC)c2nc3ccccc3c(=O)n2C)CC1 (centres undefined),2.1
17,CCCOC(=O)C1=C(C)NC2=C(C(=O)CC(c3ccc(OC)cc3)C2)C1c1ccc([N+](=O)[O-])cc1 (centres undefined),2.44
18,CN(C)c1ccc(/C=C/c2cccc(/C=C/c3ccc(N(C)C)cc3)[n+]2C)cc1,25
19,CCOC(=O)c1ccc(NCc2c(C)[nH]c(C(=O)OCC)c2C)cc1,0
20,COc1ccc(-c2csc3ncnc(Cl)c23)cc1OC,6.15
21,O=C(NCCCN1CCCC1=O)c1ccc2nc(N3CCOCC3)sc2c1,0
22,CCC(c1nc2ccccc2c(=O)n1-c1ccc(Cl)cc1)N(Cc1ccccc1)C(=O)Nc1c(C(C)C)cccc1C(C)C (centres undefined),0.917
23,COc1ccccc1NC(=O)C(=O)NCCc1ccc(OC)c(OC)c1,0
24,Cc1cc(NCCN2CCCCC2)c2ccc3ccccc3c2n1,7.02
25,CC(=O)Nc1ccc(-c2nc3c4ccccc4c4ccc(I)cc4c3[nH]2)cc1,4.69

row,Compound,IFI [%]
1,Nc1nc(N)c2c(Oc3ccccc3)cccc2n1,14.3
2,CCN(Cc1ccccc1)Cc1c(O)ccc2oc(C)c(C(=O)Nc3ccc(C)cc3C)c12,0
3,O=C1C(Cc2ccccc2)N=C2c3ccccc3N=C(SCc3ccc(Cl)cc3)N12 (centres undefined),2.41
4,CC(C)NCC(O)c1ccc2ccccc2c1 (centres undefined),0.885
5,CC(=O)c1cccc(S(=O)(=O)NCCCNc2nc3cc(C)cc(C)c3cc2C#N)c1,0
6,Cc1cc(C)cc(NC(=S)NCCO)c1,0
7,COc1cc(Br)c(CCNC(=O)Cc2cc(OC)c(OC)cc2Br)cc1OC,3.01
8,CCCCCN(C(=O)COCc1ccccc1)C(CC)c1nc2ccccc2c(=O)n1-c1cccc(Cl)c1 (centres undefined),1.89
9,COc1ccc2ccccc2c1C1NC(SCc2ccc(F)cc2)=NC(C)=C1C(C)=O (centres undefined),0
10,N#Cc1c2c(c(N3CCN(C4CCCCC4)CC3)n3c1nc1ccccc13)CCC2,1.47
11,COc1ccc(-c2c[n+](Cc3ccc(Cl)cc3Cl)c3n2CCC3)cc1,4.76
12,Cc1ccc(C=NNc2ncnc3nc[nH]c23)cc1,0
13,CCOC(=O)c1cccc(NC(=O)CC2C(=O)N(c3ccccc3)C(=O)N2C2CCCC2)c1 (centres undefined),0
14,Cc1cc(O)ccc1-c1cnc2ccccc2n1,0
15,CN1C=C(c2ccc3ccccc3n2)C(C[N+](=O)[O-])c2ccccc21 (centres undefined),16.7
16,CCOC(=O)N1CCC(NC(=O)CSCc2nc(-c3cccc(OC)c3)oc2C)CC1,0
17,N#Cc1c(N)nc(C(Cl)(Cl)Cl)nc1-c1ccccc1,1.47
18,CC1(C)N=C(N)N=C(N)N1c1ccc(F)cc1,0
19,CC1CN(C(=O)CCCSc2nnc(Cc3ccccc3)n2-c2ccc(Cl)c(Cl)c2)CC(C)O1 (centres undefined),2.73
20,CCOc1ccc2c(c1)cc(CN(C(C)=O)C1CCCC1)c1nnnn12,1.82
21,N#Cc1c(N)nc(SCC(=O)c2ccc(Br)cc2)c(C#N)c1-c1ccccc1,5.75
22,COC(=O)c1ccc(C(=O)Nc2ccc(-c3nc4cc(NC(=O)c5ccc(C(=O)OC)cc5)ccc4[nH]3)cc2)cc1,1.51
23,CCOC(=O)N1CCN(C(=O)C(=O)NNC(=O)COc2ccc(Cl)cc2Br)CC1,0
24,CCc1ccc(NC(=O)c2ccc(F)c(S(=O)(=O)N3CCN(C)CC3)c2)cc1,0
25,CCCc1nc2ccc(NC(=O)c3ccco3)cc2c(=O)n1Cc1ccc(-c2ccccc2)cc1,5.46

row,Compound,IFI [%]
1,O=C(Nc1nccs1)c1cc(-c2cccnc2)nc2ccc(Br)cc12,0
2,CC1N=C2c3ccccc3N=C(SCc3ccc(F)cc3)N2C1=O (centres undefined),3.53
3,CC(C)OCCCNc1sc(S(=O)(=O)c2ccccc2)nc1S(=O)(=O)c1ccc(Cl)cc1,0
4,CC(=O)N(C1=C(N2CCCC2)C(=O)c2ccccc2C1=O)c1cccc(F)c1,7.69
5,COc1ccc(C(=O)N(CCCC(C)Nc2cc(OC)cc3cccnc23)Cc2ccccc2OC)cc1 (centres undefined),1.59
6,CCn1c2cc(C)sc2c2cnn(CC(=O)Nc3c(C)nn(C)c3C)c(=O)c21,0
7,C=CCCC(=O)N1CCC(C(=O)Nc2ccc(-c3nc4ccccc4o3)cc2)CC1,0
8,CCC(c1nc2ccccc2c(=O)n1-c1ccccc1OC)N(CCc1ccccc1)C(=O)c1ccc(C)cc1 (centres undefined),4.72
9,COc1ccc(OCCNC(=O)c2ccccc2Cl)cc1,7.69
10,CCCCN(C(=O)Nc1ccc(OCC)cc1)C(C)c1nc2ccccc2c(=O)n1-c1ccc(F)c(Cl)c1 (centres undefined),11.7
11,CCOc1ccc(-c2cn3c(n2)sc2cc(C(=O)NCCN(CC)CC)ccc23)cc1,10.3
12,COc1ccc(NC(=O)c2cccc([N+](=O)[O-])c2C)cc1,0
13,Cc1ccc(-c2cc(C)[n+](C)c(-c3ccc(C)cc3)c2)cc1,10.6
14,O=C(CN1C(=O)c2ccccc2C1=O)Nc1cc(Cl)ccc1C(=O)O,7.69
15,CCOc1ccc(OCc2nnc(S)n2N)cc1,0
16,N#Cc1cc2nc3c(nc2cc1C#N)-c1ccccc1C3=O,0
17,CCN(CC)C(=O)N1CCN(c2ccc(Nc3ccnc4cc5ccccc5cc34)cc2)CC1,2.3
18,O=C1CSc2ccccc2N1,1.39
19,CCOC(=O)c1cnc2c(C)cccc2c1Nc1ccc(C(C)=O)cc1,0
20,CCN(c1ccc(F)cc1)S(=O)(=O)c1ccc2[nH]cc(C(=O)NC(C)(C)C)c(=O)c2c1,0
21,CCN1/C(=C\C=C2/SC(=S)N(c3ccccc3)C2=O)C(C)(C)c2cc(-c3ccccc3)ccc21,25
22,Clc1ccc2c(N3CCCC3)ccnc2c1,5.71
23,COc1ccc(C2=C(c3ccc(OC)cc3)C3(c4ccccc4)C(=O)C2(c2ccccc2)C2C(=O)N(c4cc(Cl)ccc4C)C(=O)C23)cc1 (centres undefined),0
24,COc1ccc(Nc2c3c(nc4ccc(NC(=O)c5cc(=O)c6ccccc6o5)cc24)CCCC3)cc1OC,11.4
25,Cc1ccc2[nH]c3c(NCCCN(C)C)ncnc3c2c1,11.8

row,Compound,IFI [%]
1,O=C(c1cc([N+](=O)[O-])cc([N+](=O)[O-])c1)N1CCN(c2cccc(C(F)(F)F)c2)CC1,5.04
2,Oc1ccc(-c2ccc3c(c2)OCO3)cc1CNC1CCN(Cc2ccccc2)CC1,1.96
3,CCOc1cc(C2CC(=O)NC3=C2C(=O)CC(c2cc(OC)ccc2OC)C3)ccc1O (centres undefined),0
4,Cc1ccccc1OCCSc1nc2ccc(NC(=O)c3ccccc3)cc2s1,0
5,CCC(CC)C(=O)N1CCOc2c(cc(-c3csc4ccccc34)cc2OCc2ccccn2)C1,1.74
6,C=CCn1c(COc2ccccc2C)nnc1SCC(=O)O,0
7,O=C(CSc1nnc2c(n1)[nH]c1ccccc12)Nc1ccc([N+](=O)[O-])cc1,2.29
8,O=C(NC1CCN(Cc2ccccc2)CC1)[C@@H](c1ccccc1)N1Cc2ccccc2C1=O,0
9,CC(C)CN1C(=O)c2ccccc2C(C(=O)NC2CCCCC2)C1c1cccs1 (centres undefined),6.06
10,CN(C)c1ccc(-c2n(C)c3ccccc3[n+]2C)cc1,6.25
11,CCCCOc1ccc(N(C(C)=O)C2=C(N3CCOCC3)C(=O)c3ccccc3C2=O)cc1,16.2
12,O=C(Cn1nc([N+](=O)[O-])nc1Br)NC1CCCCC1,0
13,O=C1CCC(CCNCc2ccc(Cl)cc2)N1CC1(N2CCCCC2)CCCC1 (centres undefined),0.971
14,Cc1ccccc1Oc1cc(NC(=O)c2cc3n(n2)C(C(F)(F)F)CC(c2ccccc2)N3)cc(Oc2ccccc2C)c1 (centres undefined),0.806
15,CC(C)OC(=O)CSc1nnc(CNc2nc(-c3ccccc3)cs2)n1C,0
16,CCC(C(=O)Oc1ccccc1-c1nc2ccccn2c1NC(C)(C)CC(C)(C)C)c1ccccc1 (centres undefined),4.72
17,CC(=O)Nc1sc(C)c(C)c1N=Nc1ccc(S(=O)(=O)O)cc1,0
18,CCCn1c(SCC(=O)Nc2ccccc2Cl)nc2c1c(=O)n(C)c(=O)n2C,3.7
19,COc1ccc(-c2nc(NC(=O)CS(=O)(=O)c3ccc(F)cc3)sc2C)cc1,0
20,COC(=O)c1ccc2c(c1)C(=O)c1ccccc1C2C1c2ccccc2C(=O)c2cc(C(=O)OC)ccc21 (centres undefined),0
21,CC(=NNc1nc2ccccc2s1)c1ccc([N+](=O)[O-])cc1,0
22,CCOC(=O)C(=O)N1c2ccc(OCC)cc2-c2c(ssc2=S)C1(C)C,0
23,Cc1ccccc1Cc1c(C)nc2c(C#N)c(C)nn2c1C,0
24,CCCCOc1ccc(-c2nnc(-c3ccc(C)cc3)n2-c2ccccc2)cc1,1.61
